The text below walks through data of the RNAGym collection of RNA variant scans (doi:10.7554/elife.90254).

B1: LINE1-mini (parent)
chain: GGCAGAGCUCAACACAGCGUGGCAAAGUGGCUGUGGCUAGACUGCC

Read counts are not given, so values of variants with three or more changes are uncertain.

In this data set the parent is B1. Nature of the data set: self-cleavage, relative activity (ratio to wild type); higher = more cleavage; in vitro, sequencing; the parent is a self-cleaving ribozyme.
For the variant C8A G21C C42A G44A, the self-cleavage turned out to be 0.47. As for C8G A16C U32G, the self-cleavage was 0.03. As for C8A U28G C37U, the figure is 0.03; as for C8A G27U A39U, 0.04.

For the variant C8A G22C G29U, the self-cleavage is 0.11. In the case of C8A C15U G30C G40A C46G, the self-cleavage was 0.64. Consider C8A C18U G19U, for which the self-cleavage worked out at 0.06.

With C8A U9G C10U A11G U20A, the self-cleavage was determined as 0.04. For C8A U32G C46G, the self-cleavage came out at 0.24. On to C8A C18A G36A, for which the self-cleavage came to 0.29. The result for C8A G19U U38A A41C G44C reads 0.15. The result for C8G A25C A41G C46U reads 0.24.

Take C8A G17U C37U U38C: the self-cleavage amounted to 0.03. The result for C8A C15U A26G C42G C45G reads 0.15; that for C8A G21A A26G A39U C42A, 0.31. Consider C8G A14C C45A, for which the self-cleavage was 0.03. The result for C8A C18A A26G A41C C45A reads 0.07; that for C8A C15A U38A C42G, 0.17; that for C8A C37A C45G, 0.16. The result for C8A C13G U32G reads 0.34. The result for C8G A11C A16G G19U reads 0.01. For the variant C8A U9A C18U G22A, the self-cleavage is 0.23. The result for C8A G35C C42A reads 0.25. As for C8A G19A C42U C46A, the figure is 0.08; as for C8A U20G G29U C37U, 0; as for C8A C15A C23U A25C G27A, 0.2.

On to C8G A14G C15A C18A C31U G40C C46A, for which the self-cleavage turned out to be 0. The result for C8A G35U G44C reads 0.17; that for C8G A16C A24U G36C C42A, 0.01. The result for C8A U20C G40U C42A reads 0.01. On to C8A U9G C23U, for which the self-cleavage worked out at 0.26. As for C8A U9G C37G C46U, the figure is 0.06.

Consider C8A C18A U32C G35C U38G, for which the self-cleavage was determined as 0.03. The result for C8A G27C G30C G35U reads 0.06; that for C8G A12U C13G C37G G44U, 0.02. Consider C8A G22C G27C C37U, for which the self-cleavage was found to be 0.11. C8A C13U C31U U34G: the self-cleavage came to 0.42. As for C8A G33U G36A, the figure is 0.4; as for C8G A14U G17U U20C G33C G36C G40A, 0.34; as for C8G A12C G22U, 0.03.

On to C8G A26C G33A G36C C46U, for which the self-cleavage stood at 0.03. As for C8G A12G G22A G29A C46U, the figure is 0.02.

For the variant C8A U20C C23U, the self-cleavage was 0.14.

On to C8G A14G G40U A41U, for which the self-cleavage came out at 0.02. The result for C8A G21U U34G A39C reads 0.04. For C8G A14U U20G, the self-cleavage came out at 0.06. The result for C8A G17A C18U U28G reads 0.1; that for C8G A39G C45G, 0.01. As for C8A G35A U38C G40C, the figure is 0.04.

For the variant C8A U9A C10U G36U U38G, the self-cleavage turned out to be 0.02.

On to C8G A14G G19U A26G C31U A41C, for which the self-cleavage came to 0.03. The result for C8A U20A C31A C42G reads 0.2; that for C8A C18G G19A G30U C31A G36A C46A, 0.05; that for C8G A11U G22A, 0.03. Regarding C8A U9C G29C C42G, the self-cleavage amounted to 0.1.

Regarding C8A G17U A39U, the self-cleavage came out at 0.52. As for C8A G21U G27C G40U, the figure is 0.08; as for C8A U9C C10G C31U G35A, 0.02. The result for C8A U9C A41C reads 0.09; that for C8G C10A C13A G17U G27U, 0.03. As for C8A C42A G44A, the figure is 0.38. With C8A G29U G33C G36A, the self-cleavage was found to be 0.03. As for C8A U20C U34C G35A, the figure is 0.09; as for C8A G36U C42A C45A, 0.05. The result for C8A C37U C46G reads 0.02; that for C8G A16G G17U, 0.1. On to C8A C13G G22C A26C G33A, for which the self-cleavage came to 0.05. On to C8A C15U G30A G40A, for which the self-cleavage was found to be 0.44. The result for C8A G21U C23A G29U reads 0.13. The result for C8A U32A G33A reads 0.15; that for C8A G35U C45G C46U, 0.37; that for C8A C23U U43C, 0.06. As for C8A C15U G27U U38A, the figure is 0.15. For the variant C8G A41C G44U C45U, the self-cleavage was found to be 0.06. The result for C8A C15U A26G reads 0.13. As for C8A C18G U32A G33C C45A, the figure is 0.12; as for C8A U20G A25C G33A, 0.49. As for C8A C18A G29U, the figure is 0.14; as for C8G A11C G17C U28A, 0.01. For C8G A11G C13U G22U, the self-cleavage was 0.02. The result for C8G C10A C18A U20C C46U reads 0.01. The result for C8A U20A G29C G44C reads 0.04; that for C8A C15U G19U A24G G27U, 0.32. C8A U28A C45A: the self-cleavage amounted to 0.21. The result for C8A C15U G44U reads 2.21; that for C8G C10A A41C, 0.02. As for C8A C15U G29A G33U A41C C46A, the figure is 0.19; as for C8A U20C A26G, 0.03. As for C8A G22A G27U, the figure is 0.06.

For the variant C8G C10A C15A A16G A25U G30A, the self-cleavage worked out at 0.02.

For the variant C8A G27C G30C U32A G35C U43G G44A, the self-cleavage turned out to be 0.08.

Regarding C8A C13G G19U C31G, the self-cleavage is 0.1. The result for C8A C42G C45U reads 0.07. Regarding C8A C42A U43G, the self-cleavage amounted to 0.74. As for C8G A12U A14G A41C U43A, the figure is 0.11; as for C8A C15U G30C G33U, 0.56.

With C8A C15A A25G C31U, the self-cleavage is 0.11. For C8A G17C A26G U32C, the self-cleavage was 0.16. As for C8A G29U C42G, the figure is 1.24; as for C8A C23U C31G U38C, 0.17. The result for C8G C10G C46A reads 0.03; that for C8G A11C C13U G33U G35U G40A, 0.02.

Consider C8A C23U G33A, for which the self-cleavage is 0.03.

Take C8A G17C C23G A24U G33A: the self-cleavage was 0.1. Regarding C8A U38C A39C, the self-cleavage was found to be 0.18. Consider C8G C10G C23G G27A G30U G33U, for which the self-cleavage came to 0.01. As for C8A U9A A16C C31U, the figure is 0.08; as for C8A U20G G40A C45U, 0.19; as for C8A U20A C31A C37U G44U, 0.08. For the variant C8A C18G G19A C23A U34A G44A, the self-cleavage came out at 0.07. As for C8A C23U G27A G44U, the figure is 0.16. The result for C8A G27A G33A reads 0.07. Consider C8A G22U A24G A25G A26U U32C U34G C42U, for which the self-cleavage was found to be 0.4. Turning to C8A G22C U34C, the self-cleavage amounted to 0.11. As for C8G A12U U20G C45U, the figure is 0.04; as for C8A U20G G21U G29U, 0.14; as for C8G A25C C31A C37A, 0.01.

Consider C8A G19U C23A G40A U43G C46U, for which the self-cleavage was found to be 0.01. Consider C8A U9G A12U G17A C31A, for which the self-cleavage was 0.05. The result for C8A U20G G40A reads 0.06; that for C8G C10A C37A, 0.03; that for C8A C23A C31G, 0.24. As for C8G A26C C37A, the figure is 0.06; as for C8G A14G C15U U20A, 0.07. As for C8A G29U G33A C42U, the figure is 0.43; as for C8A C18G U20A C45A, 0.15. Turning to C8A G17A C42A C45A, the self-cleavage was determined as 0.1.

C8A C37A C42G: the self-cleavage was determined as 0.

Take C8A C18G C45G: the self-cleavage came to 0.1. As for C8A G17U G30U, the figure is 0.18; as for C8A U9A U20A G21C, 0.07; as for C8G A24G C46A, 0.02. As for C8A U20A C31G C46A, the figure is 0.18; as for C8G C10G A14G G21U C23G, 0.01; as for C8G A16G C18G G22U, 0.02. As for C8A C13U G21U U32A, the figure is 0.86; as for C8G A25G G33C C45G, 0.07; as for C8G A11C C42U U43C, 0.01.

For the variant C8A U9C C37G U38C, the self-cleavage was 0.03.

In the case of C8A C13U U28A G36U C42G, the self-cleavage is 0.3. The result for C8G C10A C18U reads 0.02; that for C8A C15U G22A G35A U38A G44C, 0.1; that for C8G A11U G22U A25C, 0.01. The result for C8A G29A U34A C46U reads 0.1; that for C8G A12U U34G, 0.05; that for C8A C18U A25U A26U G27C G35C, 0.13. Consider C8A C15U C18G G33A A39C, for which the self-cleavage turned out to be 0.06. Turning to C8A U9G C15U A26G, the self-cleavage was 0.18. The result for C8A C13U U20C G21C G27U C37G reads 0.12. The result for C8A G21U C42G reads 0.12; that for C8A G27A C42U, 0.07. The result for C8A G22U U38G reads 0.07. Take C8A U9C G22C A24U G36U C46A: the self-cleavage came to 0.09. As for C8A C15G G44U, the figure is 0.06; as for C8G A12C G17A C23U A24C A26U U38C C46G, 0; as for C8A U28C G30A G33C, 0.06. As for C8A U9G A12G C37U G44A, the figure is 0.12; as for C8A G22A U32A G36U C37U, 0.05. As for C8A G17C C45U, the figure is 0.06. C8A G33U U38A A41U G44U: the self-cleavage stood at 0.14. The result for C8G A25C G27A G44U reads 0.01. The result for C8A G36C U38G G44A reads 0.93.

C8A C13G U43A: the self-cleavage was 0.18. As for C8A U20G U32A, the figure is 0.09. Take C8G A14C G29A U32A: the self-cleavage amounted to 0.06. The result for C8G A16C G19C reads 0.01; that for C8A G27U U28C, 0.19.
